Experimental findings from the antibiotic and cytotoxicity screens of Wong et al. (2023) are described below.

One test has as its system HSkMC. As to the kind of experiment: cytotoxicity call (relative viability < 0.9). The note with it: 10 µM.
A further test concerns HepG2. The test can be described thus: cytotoxicity call (relative viability < 0.9). Conditions: 10 µM.
The next test has as its system S. aureus RN4220. The test can be described thus: growth inhibition call (relative growth <= 0.2). Conditions: 50 µM.

This is one part of the list.

Regarding `C[C@H]1CCCCO[C@H](CN(C)Cc2ccc3c(c2)OCO3)[C@@H](C)CN([C@@H](C)CO)C(=O)c2cc(NC(=O)NC3CCCCC3)ccc2O1`, the cytotoxicity call in the test on HSkMC and with HepG2 was “inactive” throughout. In addition, the growth inhibition call in the test on S. aureus RN4220 is “inactive”.
Turning to `C[C@@H]1CN([C@@H](C)CO)C(=O)c2cc(NC(=O)NC3CCCCC3)ccc2O[C@@H](C)CCCCO[C@H]1CN(C)Cc1ccc(C(F)(F)F)cc1`, the cytotoxicity call in the test on HSkMC is “inactive”. Besides, the cytotoxicity call in the test with HepG2 was “active”. The growth inhibition call in the test with S. aureus RN4220 was “inactive”.
Consider `[N-]=[N+]=Nc1ccccc1[C@H]1OC(c2ccc(OCCCO)cc2)=N[C@@]1(CCS(=O)(=O)c1ccccc1)C(=O)N1CCCCC1`, for which the cytotoxicity call in the test with HSkMC and in the test with HepG2 was “inactive” throughout. The growth inhibition call with S. aureus RN4220 is “inactive”.
Regarding `C[C@H]1CN([C@@H](C)CO)C(=O)c2cccc(NC(=O)C3CCOCC3)c2O[C@@H]1CN(C)C(=O)Nc1ccccc1`, the cytotoxicity call with HSkMC and in the test with HepG2 was “inactive” in each case. In addition, the growth inhibition call with S. aureus RN4220 is “inactive”.
With `CC(C)NC(=O)Nc1ccc2c(c1)C(=O)N([C@@H](C)CO)C[C@@H](C)[C@@H](CN(C)C(=O)Nc1cccc3ccccc13)OCCCC[C@@H](C)O2`, the cytotoxicity call in the test on HSkMC and with HepG2 was “inactive” in each case. In addition, the growth inhibition call with S. aureus RN4220 was “inactive”.
On to `C[C@@H]1CN([C@H](C)CO)C(=O)c2cccc(NC(=O)c3cnccn3)c2O[C@H]1CN(C)C(=O)Nc1ccc2c(c1)OCO2`, for which the cytotoxicity call in the test with HSkMC and in the test with HepG2 was “inactive” in each case. Also, the growth inhibition call with S. aureus RN4220 is “inactive”.
`C[C@@H]1CN([C@H](C)CO)C(=O)c2cccc(NC(=O)NC3CCCCC3)c2O[C@H]1CN(C)S(C)(=O)=O`: the cytotoxicity call in the test with HSkMC and in the test on HepG2 was “inactive” each time. Further, the growth inhibition call in the test on S. aureus RN4220 is “inactive”.
As to `CCCNC(=O)N1C[C@@H](O)COC[C@@H]2O[C@H](CC(=O)NCCCN3CCOCC3)CC[C@H]21`, the cytotoxicity call in the test with HSkMC and with HepG2 was “inactive” each time. Also, in the test on S. aureus RN4220, the growth inhibition call is “inactive”.
In the case of `C[C@@H]1CN([C@H](C)CO)C(=O)c2cccc(NC(=O)c3ccc(-c4nccs4)cc3)c2O[C@@H]1CN(C)Cc1ccc(C(=O)Nc2ccccc2N)cc1`, the cytotoxicity call in the test with HSkMC was “inactive”. For the same molecule, the cytotoxicity call in the test on HepG2 is “active”. Moreover, the growth inhibition call in the test on S. aureus RN4220 was “inactive”.
For `C[C@@H]1CN([C@H](C)CO)C(=O)c2cc(NS(=O)(=O)c3cn(C)cn3)ccc2O[C@H]1CN(C)Cc1ccc(C(=O)Nc2ccccc2N)cc1`, the cytotoxicity call in the test with HSkMC and in the test with HepG2 was “inactive” in each case. The growth inhibition call in the test on S. aureus RN4220 is “inactive”.
As for `C[C@@H]1CCCCO[C@H](CN(C)C(=O)Nc2ccccc2)[C@H](C)CN([C@@H](C)CO)C(=O)c2cc(NC(=O)Nc3ccc(F)cc3)ccc2O1`, the cytotoxicity call with HSkMC and with HepG2 was “inactive” each time. Moreover, the growth inhibition call with S. aureus RN4220 was “inactive”.
Consider `C[C@@H]1CN([C@@H](C)CO)C(=O)c2ccccc2-c2ccccc2CO[C@H]1CN(C)S(=O)(=O)c1cn(C)cn1`, for which the cytotoxicity call with HSkMC and in the test on HepG2 was “inactive” throughout. Moreover, the growth inhibition call in the test on S. aureus RN4220 is “inactive”.
`O=C(NC1CCCCC1)N(CCCl)[NH2+][O-]`: the cytotoxicity call with HSkMC and in the test on HepG2 was “inactive” each time. Moreover, the growth inhibition call with S. aureus RN4220 is “inactive”.
In the case of `C[C@@H]1CCCCO[C@H](CN(C)C(=O)Nc2ccc(C(F)(F)F)cc2)[C@@H](C)CN([C@@H](C)CO)C(=O)c2cc(NC(=O)c3ccccc3)ccc2O1`, the cytotoxicity call in the test on HSkMC and in the test on HepG2 was “inactive” in each case. In the test on S. aureus RN4220, the growth inhibition call was “inactive”.
With `COCC#Cc1ccc2c(c1)O[C@@H](CN(C)Cc1ccc(F)cc1)[C@H](C)CN([C@@H](C)CO)S2(=O)=O`, the cytotoxicity call in the test with HSkMC and in the test with HepG2 was “inactive” each time. For the same molecule, the growth inhibition call in the test on S. aureus RN4220 was “inactive”.
Regarding `C[C@H]1CN([C@@H](C)CO)C(=O)Cc2cc(NC(=O)CCCCCC(=O)Nc3ccccc3N)ccc2O[C@@H]1CN(C)Cc1ccc(-c2ccccc2)cc1`, the cytotoxicity call in the test with HSkMC and with HepG2 was “inactive” in each case. The growth inhibition call in the test on S. aureus RN4220 is “inactive”.
Turning to `C[C@@H]1CN([C@H](C)CO)C(=O)Cc2cc(NS(=O)(=O)c3cn(C)cn3)ccc2O[C@H]1CN(C)C(=O)Nc1ccc(F)cc1`, the cytotoxicity call in the test with HSkMC and in the test with HepG2 was “inactive” each time. Also, in the test with S. aureus RN4220, the growth inhibition call was “inactive”.
As to `O=C(NCCO)c1cc2ccccc2oc1=O`, the cytotoxicity call in the test on HSkMC and with HepG2 was “inactive” in each case. In the test on S. aureus RN4220, the growth inhibition call is “inactive”.
Take `C[C@@H]1CCCCO[C@@H](CN(C)S(=O)(=O)c2ccccc2)[C@@H](C)CN([C@@H](C)CO)C(=O)c2cc(NC(=O)Nc3ccccc3)ccc2O1`: the cytotoxicity call in the test with HSkMC and with HepG2 was “inactive” in each case. The growth inhibition call in the test on S. aureus RN4220 was “inactive”.
As to `C[C@H](NC(=O)C[C@@H]1CC[C@@H](NC(=O)CN2CCOCC2)[C@@H](CO)O1)c1ccccc1`, the cytotoxicity call in the test on HSkMC and in the test with HepG2 was “inactive” throughout. For the same molecule, in the test with S. aureus RN4220, the growth inhibition call is “inactive”.
Regarding `C[C@@H]1CN([C@@H](C)CO)C(=O)Cc2cc(NS(=O)(=O)c3cn(C)cn3)ccc2O[C@@H]1CN(C)S(=O)(=O)c1ccc(F)cc1`, the cytotoxicity call with HSkMC and in the test on HepG2 was “inactive” throughout. Besides, the growth inhibition call in the test on S. aureus RN4220 is “inactive”.
Take `CC(C)NC(=O)N(C)C[C@@H]1OCc2cn(nn2)CCCC(=O)N([C@H](C)CO)C[C@H]1C`: the cytotoxicity call in the test with HSkMC and in the test with HepG2 was “inactive” each time. Moreover, the growth inhibition call in the test on S. aureus RN4220 is “inactive”.
`C[C@H]1CN([C@@H](C)CO)C(=O)c2cc(-c3ccc(F)cc3)cnc2O[C@H]1CN(C)C(=O)Cc1ccccn1`: the cytotoxicity call in the test on HSkMC and with HepG2 was “inactive” in each case. In the test with S. aureus RN4220, the growth inhibition call was “inactive”.
Turning to `C[C@H](CO)N1C[C@H](C)[C@H](CN(C)Cc2ccccc2)OCCCC[C@H](C)Oc2ccc(NC(=O)Nc3ccccc3)cc2C1=O`, the cytotoxicity call in the test on HSkMC and in the test on HepG2 was “inactive” throughout. The growth inhibition call in the test on S. aureus RN4220 is “inactive”.
For `O=c1c(-c2ccccc2F)coc2cc(O[C@@H]3O[C@H](CO)[C@@H](O)[C@H](O)[C@@H]3O)ccc12`, the cytotoxicity call with HSkMC and with HepG2 was “inactive” in each case. Moreover, the growth inhibition call in the test with S. aureus RN4220 is “inactive”.
Take `NCC[C@@H](Cc1ccccc1)c1ccc2c(c1)OCO2`: the cytotoxicity call in the test on HSkMC and with HepG2 was “inactive” in each case. Besides, the growth inhibition call in the test with S. aureus RN4220 was “inactive”.
Turning to `C[C@H](CO)N1C[C@H](C)[C@H](CN(C)C(=O)c2cnccn2)Oc2cc(C#CCC3CCCC3)ccc2S1(=O)=O`, the cytotoxicity call in the test on HSkMC (human skeletal muscle cells) and in the test on HepG2 was “inactive” each time. The growth inhibition call in the test with S. aureus RN4220 was “inactive”.
For the molecule `C[C@@H]1CCCCO[C@@H](CN(C)Cc2ccccc2)[C@H](C)CN([C@@H](C)CO)C(=O)c2cc(NC(=O)Nc3ccc(F)cc3)ccc2O1`, the cytotoxicity call in the test with HSkMC and in the test with HepG2 was “inactive” each time. Besides, in the test on S. aureus RN4220, the growth inhibition call is “inactive”.
